# Results taken from the supplement of paper PMC8728848.
# This is one part of the list.
# B1: Mindin (Homo sapiens), Q9BUD6 (protein)
# chain: MENPSPAAALGKALCALLLATLGAAGQPLGGESICSARALAKYSITFTGKWSQTAFPKQYPLFRPPAQWSSLLGAAHSSDYSMWRKNQYVSNGLRDFAERGEAWALMKEIEAAGEALQSVHEVFSAPAVPSGTGQTSAELEVQRRHSLVSFVVRIVPSPDWFVGVDSLDLCDGDRWREQAALDLYPYDAGTDSGFTFSSPNFATIPQDTVTEITSSSPSHPANSFYYPRLKALPPIARVTLVRLRQSPRAFIPPAPVLPSRDNEIVDSASVPETPLDCEVSLWSSWGLCGGHCGRLGTKSRTRYVRVQPANNGSPCPELEEEAECVPDNCV
# Assays:
# Experiment in all cases: glycan array binding signal (z-score within array); higher = stronger binding
# Conditions in all cases: glycan notation: IUPAC condensed, linker removed
# [1] = molecular target: GlcNAc(a1-6)Gal(b1-4)GlcNAc
# Method in brief: (§1)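 Arrays were curated from the Consortium for Functional Glycomics database, 3228 in total, and kept only where the protein sequence was available. Binding is expressed as a within-array Z-score. This score was averaged across arrays of the same protein sequence at different concentrations or buffers and across linkers, and negative values can be read as non-binding.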
# [2] = molecular target: GlcNAc(b1-2)Gal(b1-3)GalNAc
# Method in brief: as §1
# [3] = molecular target: GlcNAc(b1-2)Man(a1-3)[GlcNAc(b1-2)Man(a1-6)]Man(b1-4)GlcNAc(b1-4)GlcNAc
# Method in brief: as §1
# [4] = molecular target: GlcNAc(b1-3)Gal
# Method in brief: as §1
# [5] = molecular target: GlcNAc(b1-3)Gal(b1-3)GalNAc
# Method in brief: as §1
# [6] = molecular target: GlcNAc(b1-3)Gal(b1-4)Glc
# Method in brief: as §1
# [7] = molecular target: GlcNAc(b1-3)Gal(b1-4)GlcNAc
# Method in brief: as §1
# [8] = molecular target: GlcNAc(b1-3)Gal(b1-4)GlcNAc(b1-3)Gal(b1-4)GlcNAc
# Method in brief: as §1
# [9] = molecular target: GlcNAc(b1-3)GalNAc
# Method in brief: as §1
# [10] = molecular target: GlcNAc(b1-3)[GlcNAc(b1-6)]Gal(b1-4)GlcNAc
# Method in brief: as §1
# [11] = molecular target: GlcNAc(b1-3)[GlcNAc(b1-6)]GalNAc
# Method in brief: as §1
# [12] = molecular target: GlcNAc(b1-3)[GlcNAc(b1-6)]GlcNAc(b1-4)GlcNAc
# Method in brief: as §1
# [13] = molecular target: GlcNAc(b1-4)Gal(b1-4)GlcNAc
# Method in brief: as §1
# [14] = molecular target: GlcNAc(b1-4)GlcNAc(b1-4)GlcNAc
# Method in brief: as §1
# [15] = molecular target: GlcNAc(b1-4)GlcNAc(b1-4)GlcNAc(b1-4)GlcNAc(b1-4)GlcNAc
# Method in brief: as §1
# [16] = molecular target: GlcNAc(b1-4)GlcNAc(b1-4)GlcNAc(b1-4)GlcNAc(b1-4)GlcNAc(b1-4)GlcNAc
# Method in brief: as §1
# [17] = molecular target: GlcNAc(b1-4)[GlcNAc(b1-6)]GalNAc
# Method in brief: as §1
# [18] = molecular target: GlcNAc(b1-6)Gal(b1-4)GlcNAc
# Method in brief: as §1
# [19] = molecular target: GlcNAc(b1-6)GalNAc
# Method in brief: as §1
# [20] = molecular target: Kdn(a2-3)Gal(b1-3)GlcNAc
# Method in brief: as §1
# [21] = molecular target: Kdn(a2-3)Gal(b1-4)GlcNAc
# Method in brief: as §1
# [22] = molecular target: Man(a1-2)Man(a1-2)Man(a1-3)Man
# Method in brief: as §1
# [23] = molecular target: Man(a1-2)Man(a1-2)Man(a1-6)[Man(a1-3)]Man
# Method in brief: as §1
# [24] = molecular target: Man(a1-2)Man(a1-3)Man
# Method in brief: as §1
# [25] = molecular target: Man(a1-2)Man(a1-3)[Man(a1-2)Man(a1-6)]Man
# Method in brief: as §1
# [26] = molecular target: Man(a1-2)Man(a1-3)[Man(a1-2)Man(a1-6)]Man(a1-6)[Man(a1-2)Man(a1-2)Man(a1-3)]Man(b1-4)GlcNAc(b1-4)GlcNAc
# Method in brief: as §1
# [27] = molecular target: Man(a1-2)Man(a1-3)[Man(a1-6)]Man(a1-6)[Man(a1-2)Man(a1-3)]Man(b1-4)GlcNAc(b1-4)GlcNAc
# Method in brief: as §1
# [28] = molecular target: Man(a1-2)Man(a1-6)[Man(a1-3)]Man(a1-6)[Man(a1-2)Man(a1-2)Man(a1-3)]Man(b1-4)GlcNAc(b1-4)GlcNAc
# Method in brief: as §1
# [29] = molecular target: Man(a1-3)[Man(a1-6)]Man
# Method in brief: as §1
# [30] = molecular target: Man(a1-3)[Man(a1-6)]Man(a1-6)[Man(a1-2)Man(a1-3)]Man(b1-4)GlcNAc(b1-4)GlcNAc
# Method in brief: as §1
# [31] = molecular target: Man(a1-3)[Man(a1-6)]Man(a1-6)[Man(a1-3)]Man(b1-4)GlcNAc(b1-4)GlcNAc
# Method in brief: as §1
binder,measurement,setting,value
B1,glycan array binding signal (z-score),[1],0.607
same,glycan array binding signal (z-score),[2],-0.345
same,glycan array binding signal (z-score),[3],-0.265
same,glycan array binding signal (z-score),[4],-0.214
same,glycan array binding signal (z-score),[5],-0.282
same,glycan array binding signal (z-score),[6],-0.403
same,glycan array binding signal (z-score),[7],-0.239
same,glycan array binding signal (z-score),[8],-0.352
same,glycan array binding signal (z-score),[9],-0.31
same,glycan array binding signal (z-score),[10],-0.324
same,glycan array binding signal (z-score),[11],-0.343
same,glycan array binding signal (z-score),[12],-0.276
same,glycan array binding signal (z-score),[13],-0.307
same,glycan array binding signal (z-score),[14],-0.213
same,glycan array binding signal (z-score),[15],-0.397
same,glycan array binding signal (z-score),[16],-0.209
same,glycan array binding signal (z-score),[17],-0.326
same,glycan array binding signal (z-score),[18],0.021
same,glycan array binding signal (z-score),[19],-0.292
same,glycan array binding signal (z-score),[20],-0.342
same,glycan array binding signal (z-score),[21],-0.327
same,glycan array binding signal (z-score),[22],-0.085
same,glycan array binding signal (z-score),[23],-0.306
same,glycan array binding signal (z-score),[24],-0.303
same,glycan array binding signal (z-score),[25],-0.292
same,glycan array binding signal (z-score),[26],-0.278
same,glycan array binding signal (z-score),[27],-0.225
same,glycan array binding signal (z-score),[28],-0.299
same,glycan array binding signal (z-score),[29],-0.263
same,glycan array binding signal (z-score),[30],-0.066
same,glycan array binding signal (z-score),[31],-0.319
